Publication PMC10191332 (2023)

Biological target: recombinant His-gH/gL (HCMV), purified (HCMV, biotinylated (sulfo-LC-LC-biotin kit) | biotinylated (sulfo-LC-LC-biotin kit))
Assay: BLI

B1: EphA2 extracellular domain ([…]), purified (domain or fragment)
chain: not shown
koff: 0.00146 s⁻¹
